Measurements: publication PMC4336329 (PLoS ONE, 2015)
In all, about 310,000 compounds went through this assay and about 14,000 (4.5%) showed an effect of 50% or more. Effects have a minus sign here. This is one part of the list.

molecular target: human ether-à-go-go-related gene (hERG) potassium channel (human, UniProt Q12809); assay: primary screen, population patch clamp on CHO cells stably expressing hERG
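Also: peak tail current of the secondary pulse compared with the same well before compound.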

human ether-à-go-go-related gene (hERG) potassium channel, sequence (Q12809 whole entry, looked up): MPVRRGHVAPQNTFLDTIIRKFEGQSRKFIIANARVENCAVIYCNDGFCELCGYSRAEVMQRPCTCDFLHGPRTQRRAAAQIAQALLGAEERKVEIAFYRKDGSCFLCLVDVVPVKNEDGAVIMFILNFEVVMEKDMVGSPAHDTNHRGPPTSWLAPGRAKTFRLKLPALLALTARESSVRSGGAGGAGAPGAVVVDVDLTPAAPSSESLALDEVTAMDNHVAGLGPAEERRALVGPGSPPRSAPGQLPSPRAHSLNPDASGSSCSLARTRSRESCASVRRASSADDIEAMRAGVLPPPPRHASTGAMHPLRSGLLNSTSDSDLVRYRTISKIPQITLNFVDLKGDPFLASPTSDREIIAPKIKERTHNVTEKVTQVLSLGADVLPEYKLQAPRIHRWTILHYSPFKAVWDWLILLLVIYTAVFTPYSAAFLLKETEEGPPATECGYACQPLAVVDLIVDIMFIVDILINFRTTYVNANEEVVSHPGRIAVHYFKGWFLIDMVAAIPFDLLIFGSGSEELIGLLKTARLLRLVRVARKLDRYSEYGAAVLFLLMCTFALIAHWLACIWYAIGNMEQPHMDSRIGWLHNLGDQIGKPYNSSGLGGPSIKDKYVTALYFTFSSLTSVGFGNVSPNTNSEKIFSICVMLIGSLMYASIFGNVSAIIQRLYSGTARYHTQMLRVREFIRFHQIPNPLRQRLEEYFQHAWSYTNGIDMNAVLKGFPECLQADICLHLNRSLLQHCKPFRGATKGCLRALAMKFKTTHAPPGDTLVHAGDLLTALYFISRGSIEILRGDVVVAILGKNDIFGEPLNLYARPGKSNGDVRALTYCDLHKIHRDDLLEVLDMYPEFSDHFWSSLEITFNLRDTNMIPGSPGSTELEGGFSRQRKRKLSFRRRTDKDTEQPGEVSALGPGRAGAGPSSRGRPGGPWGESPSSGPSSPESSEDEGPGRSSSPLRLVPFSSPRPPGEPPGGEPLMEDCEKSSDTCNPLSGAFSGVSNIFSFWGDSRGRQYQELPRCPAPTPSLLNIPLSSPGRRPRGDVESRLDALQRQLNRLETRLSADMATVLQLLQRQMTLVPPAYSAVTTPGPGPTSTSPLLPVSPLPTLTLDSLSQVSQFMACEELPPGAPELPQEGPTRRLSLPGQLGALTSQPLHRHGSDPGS

| Compound | hERG current change (%, negative = inhibition) at 10uM [%] |
| --- | --- |
| O=C(Cn1ncc2c([nH]c3ccccc32)c1=O)NCC1CCN(Cc2ccccc2F)CC1 | -44.2 |
| O=c1nc(NCc2ccccc2Cl)cn[nH]1 | -6.73 |
| N=C1/C(=C/c2cccn2Cc2ccc(Cl)cc2)C(=O)N=C2SC=CN12 | -2.07 |
| COc1ccc(C)cc1NC(=S)NC12CN3CN(CN(C3)C1)C2 | 27 |
| CC(C)(C)OC(=O)[C@H](Cc1ccccc1)NC(=O)c1[nH]cnc1C(=O)N[C@@H](Cc1ccccc1)C(=O)OCc1ccccc1 | -8.83 |
| Cc1ccc(C(=O)N2CC(=O)Nc3ccc(F)cc3C2c2ccc(F)cc2)cc1[N+](=O)[O-] (centres unmarked) | -47.6 |
| Cc1nn(CC(=O)N2CCC(C(N)=O)CC2)c(=O)c2nn(-c3ccccc3)c(C)c12 | 11.1 |
| COc1ccc(/C=N/N=C2/NC(=O)C(CC(=O)O)S2)cc1OCc1ccccc1Cl (centres unmarked) | -0.227 |
| C/C(=N\OC(=O)c1ccc(Br)cc1)c1ccccn1 | -1.74 |
| CCOC(=O)N1CCC(NC(=O)CCc2c(C)nc3ncnn3c2C)CC1 | 12.4 |
| O=C(O)C1CSC(c2ccccc2Cl)N1C(=O)c1ccc(Cl)cc1 (centres unmarked) | 14.9 |
| COc1ccc(NC(=O)CN(c2c(C)cccc2C)S(C)(=O)=O)cc1 | -42.5 |
| O=C(Nc1ccccc1)c1ccc(Br)o1 | 3.15 |
| COc1ccc(NC(C)=O)cc1S(=O)(=O)NC(C)c1ccc(-n2ccnc2)cc1 (centres unmarked) | -3.74 |
| COc1ccc(NC(=O)CC2S/C(=N\c3nccs3)N(C)C2=O)cc1 (centres unmarked) | 4.06 |
| O=C(c1cc2ccccc2oc1=O)N(Cc1ccccc1)CC1CCCO1 (centres unmarked) | -1.8 |
| O=C(CN(c1ccc2c(c1)OCCO2)S(=O)(=O)c1ccccc1)NCc1ccco1 | 4.37 |
| CS(=O)(=O)N1CCN(C(=O)c2ccc3c(c2)OCCO3)CC1 | 16.7 |
| COc1ccc(CSc2nnc(SCc3ccc([N+](=O)[O-])cc3)s2)cc1 | 0.108 |
| Cc1ccc(OC(=O)C(C)c2cccc(C(=O)c3ccccc3)c2)cc1 (centres unmarked) | 11.1 |
| O=C1CC(c2ccccc2)c2cccc(F)c21 (centres unmarked) | 6.18 |
| Cc1cc(C)c(C(=O)N2CCCC(C(=O)c3cc(F)ccc3F)C2)o1 (centres unmarked) | 2.67 |

| Compound | hERG current change (%, negative = inhibition) at 10uM [%] |
| --- | --- |
| Cc1nn(-c2ccccc2)c(Cl)c1C1C(C#N)=C(N)OC2=C1C(=O)CC(C)(C)C2 (centres unmarked) | 3.18 |
| COc1cc(NC(=O)Cn2cnc(S(=O)(=O)N3CCC(C)CC3)c2)cc(OC)c1OC | 20.6 |
| CCOC(=O)C1=C(CN2CCN(C(=O)c3ccco3)CC2)NC(=O)NC1c1ccc(Cl)cc1 (centres unmarked) | -35 |
| CCOC(=O)c1c(N)sc(C(=O)Nc2ccccc2)c1C | -9.89 |
| COC(=O)c1ccccc1NC(=O)NCc1ccco1 | 11.2 |
| CCOc1ccc(S(=O)(=O)N2CCC(C(=O)N3CCOCC3)CC2)cc1C | 9.77 |
| CC(C)(C)NC(=O)/C(=C/c1cccnc1)NC(=O)c1ccco1 | -2.54 |
| C[C@@H]1CN(C2CCN(Cc3nc(CC4CC4)no3)CC2)C[C@H](C)O1 | -1.44 |
| Cc1ccccc1C(=O)N1CCN(c2ccc(NC(=O)c3ccc([N+](=O)[O-])o3)cc2)CC1 | 12.8 |
| O=S(=O)(Nc1ccc(N2CCCCC2)cc1)c1ccc(F)cc1F | 3.73 |
| CCCNC(=O)C1CCN(S(=O)(=O)c2c(C)noc2/C=C\c2ccc(OC)cc2)CC1 | -14.2 |
| COC(=O)C(C)Sc1ccc2nnc(CCNS(=O)(=O)c3ccc(C)cc3)n2n1 (centres unmarked) | -20.9 |
| Cc1c(OCC(=O)OC(C)(C)C)ccc2c3c(c(=O)oc12)CCC3 | 20 |
| CCN(CC)CCNC(C(=O)Nc1ccc([N+](=O)[O-])cc1Br)c1ccccc1 (centres unmarked) | -77 |
| CCc1ccc(NC(=O)CNS(=O)(=O)c2c(C)noc2C)cc1 | -2.28 |
| O=C(NCCC1CCCCN1S(=O)(=O)c1ccccc1)C(=O)Nc1ccc(F)cc1F (centres unmarked) | 2.67 |
| CCN(C(=O)c1cc2c(=O)n3cccc(C)c3nc2n1CCCOC)C1CCCCC1 | -44.1 |
| Cc1nn(-c2ccccc2)nc1C(=O)c1c(C)[nH]n(-c2ccccc2)c1=O | 15.2 |
| CC1(C)CC(N2CCC(=O)N(C3CC(C)(C)NC(C)(C)C3)C2)CC(C)(C)N1 | -7.71 |
| Cc1cc(C)c(C)c(S(=O)(=O)N2C(=S)NC(=O)C2C(C)C)c1C (centres unmarked) | 20.8 |
| COc1ccc(OC)c2c1C(=O)C(Cl)=C(Cl)C2=O | 13.4 |
| COc1ccc(-c2cn3c(C)c(C(=O)N4CCN(c5ccc(F)cc5)CC4)sc3n2)cc1 | 1.07 |

| Compound | hERG current change (%, negative = inhibition) at 10uM [%] |
| --- | --- |
| CCCC1c2ccc(C)n2CCN1C(=O)Nc1ccc(F)cc1 (centres unmarked) | -20.9 |
| Cc1nc2ccccn2c1C(=O)NNS(=O)(=O)c1ccc(C(C)(C)C)cc1 | 7.38 |
| CCC(CC)=NNc1ccc([N+](=O)[O-])cc1[N+](=O)[O-] | 5.32 |
| CCOC(=O)c1ccc(NC(=O)c2ccc(NC(=O)c3ccccc3)cc2)cc1 | 2.11 |
| C#CCOc1c(Cl)cc(C2C3=C(CCCC3=O)N(CC(=O)O)C3=C2C(=O)CCC3)cc1OC | -6.23 |
| CC(=O)N1CCN(S(=O)(=O)c2ccc3c(c2)OCCO3)CC1 | 10.5 |
| O=C(N/N=C/c1ccc(OC(=O)c2ccccc2Cl)cc1)c1cc(O)cc(O)c1 | -5.05 |
| CN(c1ccccc1C(=O)N1CCOCC1)S(C)(=O)=O | 16.2 |
| COc1cccc(C(=O)C2CCCN(C(=O)c3ccc(C#CC(C)(C)O)cc3)C2)c1 (centres unmarked) | 0.875 |
| NC(=O)c1ccccc1NC(=O)c1ccccc1S(=O)(=O)c1ccccc1[N+](=O)[O-] | -25.4 |
| CC(=O)Nc1ccc(C(=O)CSc2nc3ccccc3n2CC(=O)N2CCCC2)cc1 | 11.1 |
| CCc1ccc2oc(=O)cc(CN3CCN(Cc4ccccc4)CC3)c2c1 | -46.3 |
| CCCCCc1ccc(C2=NNC(=O)CC2)cc1 | -17.2 |
| CC(=O)c1sc(NC(C)c2ccccc2)nc1C (centres unmarked) | 27 |
| CC(C)C1NCCc2c1sc1ccccc21 (centres unmarked) | -20.3 |
| c1nc(N2CCCCC2)c2[nH]cnc2n1 | 9.4 |
| COc1cccc(NC(=O)COC(=O)CCCc2c[nH]c3ccccc23)c1 | 6.52 |
| COC(=O)c1ccc(C(c2c(C)[nH][nH]c2=O)c2c(C)[nH][nH]c2=O)cc1 | 19 |
| Cc1ccc(-c2nc(C(Cl)Cl)c3ccccc3n2)cc1 | 4.43 |
| Cc1ccc(NC(=O)CC2C(=O)NCCN2C(=O)c2ccc(F)cc2)cc1 (centres unmarked) | -26.3 |
| Clc1ccccc1-c1nnc(-c2ccccc2Cl)o1 | -2.56 |
| CC1=NNC(=O)/C1=C\c1cn(-c2ccccc2)nc1-c1cccs1 | 15.3 |

| Compound | hERG current change (%, negative = inhibition) at 10uM [%] |
| --- | --- |
| Cc1ccc(S(=O)(=O)NC(C)C(=O)Nc2ccc3c(c2)OCO3)cc1 (centres unmarked) | 28 |
| Cc1c(C(=O)N(C)C2CC(C)(C)NC(C)(C)C2)oc2c(F)cccc12 | -20.9 |
| CCOc1cc(N2CCOCC2)c(OCC)cc1NC(=O)c1nc2nc(C)cc(C)n2n1 | 18.4 |
| CSCCC(NS(=O)(=O)/C=C/c1ccccc1)C(=O)NCCc1ccc(S(N)(=O)=O)cc1 (centres unmarked) | 7.59 |
| CS(=O)(=O)N(CC(=O)N1CCc2ccccc2C1)c1cccc(F)c1 | -29.4 |
| Cc1oc(-c2ccc(Cl)cc2)cc1C(=O)O | 19.5 |
| CCN(C)c1ccc(/C=N\n2nnnc2N)cc1 | 12 |
| CCOCCCNC(=O)C(c1ccc(Cl)cc1)N(Cc1cccs1)C(=O)CNC(C)=O (centres unmarked) | 6.74 |
| CC1(C)CC(=O)c2sc(NS(C)(=O)=O)nc2C1 | -12.3 |
| Cc1ccc(NC(=O)COc2ccccc2C(=O)NCCc2ccccc2)cc1 | 5.6 |
| Cc1nc(NC(=O)/C=C/c2ccco2)sc1C | 11 |
| COCCn1c(SCC(=O)Nc2cccc(S(N)(=O)=O)c2)nc2cc(Cl)ccc2c1=O | -38.8 |
| COc1ccccc1NC(=S)N1CCN(C/C=C/c2ccccc2)CC1 | -0.974 |
| CCOC(=O)N1CCC(NC(=O)C2CCCN(C(=O)N3CCOc4ccccc43)C2)CC1 (centres unmarked) | 3.21 |
| CCOC(=O)c1c(NC(=O)COC(=O)Cc2c[nH]c3ccccc23)sc(C(=O)N(C)C)c1C | -62.5 |
| Cc1ccc(NC(=O)CN2C(=O)NC(C)(C3CC3)C2=O)c([N+](=O)[O-])c1 (centres unmarked) | -13.1 |
| CCC(C)NC(=O)Nc1ccccc1C (centres unmarked) | 20.4 |
| Cc1ccc(CN2C(=O)CCC2C(=O)NCCN(CC(C)C)CC(C)C)cc1 (centres unmarked) | -13.4 |
| CC(C)CC(=O)NC(Oc1ccc(Cl)cc1)C(Cl)(Cl)Cl (centres unmarked) | 1.66 |
| C/C(=N\NC(=O)c1c(Br)c(C)nn1C)c1cccc(NC(=O)C2CCC2)c1 | -19.4 |
